This assay deals with NCI-H23 complex spheroids with HUVEC/MSC, viability. The assay is described as follows: Anticancer human tumor NCI-H23 cell line growth inhibition [RAS].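 For all read-outs here: spheroids exposed to compound for 7 days.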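 For viability, T/C: 100% = DMSO vehicle control viability.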 The conditions noted are these: for IC50: compound alone; for viability, T/C: stronger effect = lower value. The text has this: RAS pathway inhibitors in Combinations in Complex Spheroids
A high-throughput screen of multi-cell type tumor spheroids was designed to identify active combinations of RAS pathway inhibitors and targeted small molecules. Complex spheroids include a stromal component modeled by human endothelial cells (HUVEC) and fibroblasts modeled by human mesenchymal stem cells (MSCs). The concentration ranges selected for each drug and investigational agent were based upon clinically achievable concentrations if the clinical Cmax of the agent was known.
Compounds. The drugs and investigational agents: abemaciclib (NSC768073), cobimetinib (NSC768068), divarasib (GDC6063, NSC841802), docetaxel (NSC628503), GDC-1971 (RLY-1971, NSC841576), gemcitabine (NSC613327), inavolisib (NSC800729), ipatasertib (NSC767898), KB-0742 (NSC834161), MRTX-1133 (NSC836407), osimertinib (NSC779217), RMC-4630 (NSC839698), RMC-6236 (NSC851965), RMC-6291 (NSC852671), Ro-3306 (NSC812927), sapanisertib (NSC764658), SN-38 (NSC673596), staurosporine (NSC755774), SY5609 (NSC837396), and tovorafenib (DAY101, NSC766906), were obtained from the National Cancer Institute (NCI) Developmental Therapeutics Program Chemical Repository. The FDA-approved anticancer drug set is available from the NCI Developmental Therapeutics Program. […] The stock solutions were prepared in dimethyl sulfoxide (DMSO, Sigma-Aldrich, St. Louis, MO, cat. D2650) at 800-fold the tested concentration and stored at -70 degrees C prior to their use. All drugs and investigational agents were tested over a range starting from a high concentration at or near the clinical Cmax and decreasing in half-log increments. If the clinical Cmax for an agent had not been determined, the highest concentration tested was 10 microM.
Cell Culture. All cells were maintained in an incubator at 37 degrees C and 5% CO2 with 95% humidity. The PDC lines were cultured according to standard operating procedures established by the NCI PDMR. All PDCs were thawed and cultured in Matrigel-coated flasks prepared with a working solution of 1X Ham's F-12 nutrient mix, without supplementation (Invitrogen, Waltham, MA, cat. 11765054), 100 U/mL penicillin-streptomycin (Invitrogen, cat. 15140122), and 2.5% Matrigel (Corning Inc., Corning, NY, cat. 354248) for the first three passages. The 362531-283-R-J2-PDC and 782815-120-R-J1-PDC lines were cultured in 6C/Colon 1B media, which includes advanced DMEM/F-12 (Thermo Fisher Scientific, cat. 12634028), 10 mM HEPES (Thermo Fisher Scientific, cat. 15630080), 1X GlutaMAX supplement (Thermo Fisher Scientific, cat. 35050061), 0.1 mg/mL primocin (InvivoGen, San Diego, CA, cat. ant-pm-2), 10% defined fetal bovine serum, heat inactivated (HyClone Laboratories Inc., Logan, UT, cat. SH30070.03HI), 50% L-WRN conditioned media (ATCC, cat. CRL-3276), 1.25 mM N-Acetyl-L-cysteine (Sigma-Aldrich, cat. A9165), 10 mM nicotinamide (Sigma-Aldrich, cat. N0636), 1X B-27 supplement (Thermo Fisher Scientific, cat. 17504044), 1X N-2 supplement (Thermo Fisher Scientific, cat. 17502048), 50 ng/mL human EGF (Thermo Fisher Scientific, cat. PHG0311), and 10 microM Y-27632 dihydrochloride (Tocris Bioscience, cat. 1254). The K12877-001-R-J1-PDC line was cultured in 6I media, which includes all 6C/Colon 1B media plus 10 ng/mL human FGF-10 (PeproTech, cat. 100-26), 1 ng/mL human FGF-2 (PeproTech, cat. 100-18B), 1 µM prostaglandin E2 (Tocris Bioscience, cat. 2296), […] hydrocortisone (Sigma-Aldrich, cat. H4001), and […] bovine insulin (Sigma-Aldrich, cat. I6634). The K86415-001-R-J1-PDC line was cultured in 6D media, which includes all 6C/Colon 1B media components minus the L-WRN conditioned media. The 485176-168-R4-J1-PDC was cultured in PANC media, which includes all 6C/Colon 1B media plus 100 ng/mL human FGF-10 (PeproTech, cat. 100-26), 500 nM SB-431542 (Selleckchem, cat. S1067), and 10 nM gastrin (Tocris Bioscience, cat. 3006). […]

For part of its entries the source gives two or more results. This is not the full list of results. There may be further records. The values listed for one entry are repeats across runs, samples, wells, individuals or studies.

As for `CC1(C)CCC(Nc2ncc(C(F)(F)F)c(-c3c[nH]c4c(P(C)(C)=O)c(C#N)ccc34)n2)CN1` (centres undefined), the IC50 is reported as 9.07 nM, 18.2 nM, 33.9 nM, > 300 nM.

With `CCn1c(-c2cccnc2C(C)OC)c2c3cc(ccc31)N1CCOC(CC(NC(=O)C(C(C)C)N(C)C(=O)C3(F)CCN(C(=O)C#CC(C)(C)N(C)C)CC3)C(=O)N3CCCC(N3)C(=O)OCC(C)(C)C2)C1` (centres undefined), for the setting “compound alone 0.003 µM”, the viability, T/C was 30.1, 28.2, 30.2, 30.3, 112, 28.4, 33, 30.7%.

Take `CC1(O)CCCC1n1c(=O)c(C(F)F)cc2cnc(NC3CCN(S(C)(=O)=O)CC3)nc21` (centres undefined): the viability, T/C (compound alone 0.1 µM) is on record as 85.6, 79, 64.7, 60%.

With `CCN1CCN(Cc2ccc(Nc3ncc(F)c(-c4cc(F)c5nc(C)n(C(C)C)c5c4)n3)nc2)CC1`, where the note is “compound alone 1 µM”, the viability, T/C is given as 42.4, 46.1, 60.7, 69.1%.

Turning to `CC(C)NCC(C(=O)N1CCN(c2ncnc3c2C(C)CC3O)CC1)c1ccc(Cl)cc1` (centres undefined), where the note is “compound alone 10 µM”, the viability, T/C is on record as 48.1, 49.4, 76.5, 60.1%.

With `C=CC(=O)Nc1cc(Nc2nccc(-c3cn(C)c4ccccc34)n2)c(OC)cc1N(C)CCN(C)C`, the viability, T/C is on record as 109, 121, 89.8, 103% (compound alone 0.1 µM) and 84.3, 89, 111, 97.3% (compound alone 1 µM).

Consider `O=C(c1ccc(F)c(F)c1Nc1ccc(I)cc1F)N1CC(O)([C@@H]2CCCCN2)C1`, for which the viability, T/C was 93.1, 88.6, 106, 115% (compound alone 0.00316 µM) and 87.4, 78.8, 94.4, 105% (compound alone 0.01 µM).

Consider `C[C@@H](NC(=O)c1ncnc(N)c1Cl)c1ncc(C(=O)Nc2cc(C(F)(F)F)c(Cl)cn2)s1`, for which the viability, T/C (compound alone 10 µM) is 55.4, 50.9, 73.8, 82.6%.

For `Cc1nc(N2CCC3(CC2)COC(C)C3N)c(CO)nc1Sc1ccnc(N)c1Cl` (centres undefined), the IC50 is 1.23 µM, 2.1 µM, > 10 µM, 7.17 µM. The viability, T/C (compound alone 0.1 µM) is 73.8, 97.5, 102, 93.5%.

Take `NC1c2ccccc2OC12CCN(c1cnc3c(N4CCCc5ncccc54)n[nH]c3n1)CC2` (centres undefined): the IC50 is listed as 74.2, 123, 241, 268 nM.

For the compound `CC(C)n1nc(-c2ccc3oc(N)nc3c2)c2c(N)ncnc21`, the viability, T/C (compound alone 0.001 µM) is reported as 102, 90, 110, 116%.

For the origin of these results see PubChem BioAssay AID2060885 (Molecular Pharmacology Branch, DTP, NCI, 2025).
